# Assay results published in PubChem BioAssay AID1460 (National Center for Advancing Translational Sciences (NCATS), 2008).
# Values joined by “and” are separate entries in the source; they are usually repeats but may differ in a detail not shown here. Equal entries are not always repeated. Hit rate of the full screen: of about 270,000 compounds, about 5,800 (2.1%) were called active. The inconclusive results got no clear call from the source; some entries with a clear call stand among them for comparison. The call rests on the fitted dose curve; in most records, active means well fitted inhibition curve with a large enough effect; inconclusive means small, poorly fitted or top-dose-only effect; inactive means flat fitted curve, though single readings scatter. A potency beside an inconclusive call is a rough fit, not a confirmed value.
# Biological target: Microtubule-associated protein tau (Homo sapiens) (UniProt P10636)
# Assay: qHTS for Inhibitors of Tau Fibril Formation, Thioflavin T Binding; further: nearly all actives have a fitted effect of over 55% in size
# Conditions: recombinant tau K18 P301L (four-repeat tau fragment), heparin-induced fibrillization, ThT fluorescence; series mostly up to 57.4 µM; activity, negative = inhibition: at the top concentration
# In short: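 Aggregation was driven by heparin (20 uM final) acting on recombinant tau […] bearing P301L in 100 mM sodium acetate pH 7; fibrils were detected with Thioflavin T.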
# On the % scale 0 is the no-effect control and ±100 the full control effect; potency means the concentration at half of the fitted maximal effect; tags describe the fitted curve by direction and shape.
# Sequence of UniProt P10636 (P10636 whole entry, looked up): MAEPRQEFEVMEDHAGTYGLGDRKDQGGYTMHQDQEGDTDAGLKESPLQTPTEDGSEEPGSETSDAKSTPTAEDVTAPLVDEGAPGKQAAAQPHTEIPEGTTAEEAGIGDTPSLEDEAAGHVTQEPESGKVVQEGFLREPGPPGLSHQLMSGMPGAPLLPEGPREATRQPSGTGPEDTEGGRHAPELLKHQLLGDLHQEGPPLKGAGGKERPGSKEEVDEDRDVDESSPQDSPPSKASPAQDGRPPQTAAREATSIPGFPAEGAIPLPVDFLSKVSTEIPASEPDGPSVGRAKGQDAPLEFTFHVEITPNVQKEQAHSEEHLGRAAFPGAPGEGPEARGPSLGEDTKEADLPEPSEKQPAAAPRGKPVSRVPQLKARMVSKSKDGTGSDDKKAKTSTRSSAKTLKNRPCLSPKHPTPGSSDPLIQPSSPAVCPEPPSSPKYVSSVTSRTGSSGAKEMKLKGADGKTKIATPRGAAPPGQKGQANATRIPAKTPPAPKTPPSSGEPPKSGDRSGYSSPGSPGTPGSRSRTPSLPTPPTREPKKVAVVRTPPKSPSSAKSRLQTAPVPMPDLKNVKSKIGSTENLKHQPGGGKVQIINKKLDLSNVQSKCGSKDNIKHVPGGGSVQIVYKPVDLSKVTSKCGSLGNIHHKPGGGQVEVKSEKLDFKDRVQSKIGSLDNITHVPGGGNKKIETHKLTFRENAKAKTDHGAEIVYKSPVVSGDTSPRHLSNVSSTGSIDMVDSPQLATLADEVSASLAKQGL
Compound,"activity, negative = inhibition",Potency
CCOC(=O)c1sc(N(Cc2ccccc2)C(=O)COC(=O)c2ccc(O)cc2)nc1C,inactive: -3.01%,
CCOC(=O)c1[nH]c(C)c(C(=O)Nc2ccc(C)c(Cl)c2)c1C,,"inconclusive: 10 µM [inhibitor, partial curve]"
CC(C)NC(=O)c1cc2c(Cl)nc3ccccc3c2s1,inactive: -9.6%,
COc1ccc(N=Nc2[nH]c3ccc(C)cc3c2O)cc1,,"inconclusive: 2.82 µM [inhibitor, full curve]"
Cc1c(CBr)[n+](=O)c2c(n1[O-])C(Br)CCC2Br (stereo unspecified),,active: 25.1 µM
CCC(=O)N1CCc2cc(S(=O)(=O)CCC(=O)NCc3ccc(F)cc3)ccc21,inactive: -3.85%,
COc1ccc(Cn2c(C(=O)O)c(CNCCc3ccccc3Cl)c3ccc(C)cc32)cc1,inactive: -16.3%,
O=C(Nc1ccccc1)Nc1ccc(Cl)c([N+](=O)[O-])c1,,"inconclusive: 20 µM [inhibitor, partial curve]"
CC(/C=N\Nc1nnc2c(n1)[nH]c1c(C)cccc12)=C\c1ccco1,,active: 1.41 µM
Cc1cc2c(sc3ccccc32)c(C)n1,,"inconclusive: 22.4 µM [inhibitor, single point]"
O=C(O)c1ccc(N=NN2CCCCC2)cc1,inactive: -0.485%,
COc1cc(OC)c(NC(=S)Nc2cc(Cl)cc(Cl)c2)cc1Cl,,"inconclusive: 12.6 µM [inhibitor, partial curve]"
COc1ccc(-n2nc3c(c2NC(=O)C(=O)N2CCN(C)CC2)CSC3)cc1,inactive: -6.78%,
O=C(Cn1c(=O)n(-c2ccc(F)cc2)c(=O)c2sccc21)Nc1cccc(C(F)(F)F)c1,,"inconclusive: 14.1 µM [activator, partial curve]"
COn1c(C)c(C(C)=O)c2c3nonc3ccc21,,active: 14.1 µM
COc1cc(CC(NC(C)=O)C(=O)NC2CCN(c3c(Cc4ccccc4)c(C)nc4ncnn34)CC2)cc(OC)c1 (stereo unspecified),,"inconclusive: 31.6 µM [inhibitor, single point]"
CC(=O)NCc1ccc(-c2nc3ccccc3s2)cc1,,"inconclusive: 22.4 µM [inhibitor, partial curve]"
Cc1cc(C)c(C(=O)/C=C/c2ccco2)c(=O)[nH]1,,active: 22.4 µM
CCOC(=O)c1cc2c(=O)n3ccccc3nc2n(Cc2ccco2)c1=NC(=O)c1ccccc1OC,,"inactive and inconclusive: 14.1 µM [inhibitor, partial curve]"
O=C(CN1CCN(c2ccc([N+](=O)[O-])cc2)CC1)Nc1ccccn1,,"inconclusive: 7.94 µM [inhibitor, partial curve]"
Cc1nc(SCCO)c2oc3ccccc3c2n1,inactive: 13.9%,
CCOc1ccc2nc(N3CCCC(C(=O)NCCc4ccc(SC)cc4)C3)sc2c1 (stereo unspecified),inactive: -11.9%,
COc1cc(NC(=O)CSc2nc3nc(C)c(Cc4ccccc4)c(C)n3n2)cc(OC)c1,,"inconclusive: 0.562 µM [inhibitor, full curve, poor fit]"

Compound,"activity, negative = inhibition",Potency
COc1ccc2c(COC(=O)c3n[nH]c4ccccc34)cc(=O)oc2c1,,"inconclusive: 3.16 µM [inhibitor, full curve]"
Cc1ccc(Cl)cc1NC(=O)Cn1c(=O)n(CCC(=O)N2CCc3ccccc3C2)c(=O)c2ccccc21,inactive: 2%,
Cc1c(Cl)c(C(F)F)nn1CC(=O)NC1C(=O)N2C(C(=O)O)=C(CSc3nnnn3C)CSC12 (stereo unspecified),,"inconclusive: 11.2 µM [inhibitor, partial curve, poor fit]"
COC(=O)CN1C(=S)N(c2ccc(OC)cc2)C(=O)/C1=C/c1ccc(OC)cc1,inactive: 4.86%,
CSc1nc(-c2ccccc2)[nH]c(=S)c1C(C)=O,,"inconclusive: 17.8 µM [inhibitor, partial curve]"
COc1ccc(Cn2c(=S)[nH]c3ccsc3c2=O)cc1,inactive: -10.1%,
O=C(O)[C@@H]1Cc2ccccc2N1,,"inconclusive: 28.2 µM [inhibitor, partial curve]"
Cc1cc(O)c(C(=O)c2cnc3c(c2)COc2ccccc2-3)cc1Cl,inactive: -17%,
CCSc1nc(=S)cc(C)[nH]1,,"inconclusive: 39.8 µM [inhibitor, single point]"
CCn1c(=O)c([N+](=O)[O-])c(NCCc2ccccc2)c2ccccc21,,"inconclusive: 25.1 µM [inhibitor, partial curve]"
O=C(c1ccc(C#CC2(O)CCCCC2)cc1)N1CCN(C(c2ccccc2)c2ccccc2)CC1,,"inconclusive: 3.55 µM [inhibitor, partial curve]"
CCc1ccn2cc(-c3ccc4c(c3)OCO4)nc2c1,,"inconclusive: 14.1 µM [inhibitor, partial curve]"
COc1ccc(N(CC(=O)NCCSC2CCCCC2)S(C)(=O)=O)c(OC)c1,inactive: -11.1%,
N#C/C(=C/c1ccc(Sc2nc3ccccc3[nH]2)o1)c1cccc(F)c1,,"inconclusive: 3.98 µM [inhibitor, single point]"
Cc1ccc(C2CC(c3ccccc3)=NN2C(=O)CSc2nnc(-c3ccc(Cl)cc3)o2)o1 (stereo unspecified),inactive: -2.32%,
C/C(=N\N(Cc1ccccc1)c1ccccc1)c1ccncc1,,"inconclusive: 39.8 µM [inhibitor, single point]"
Oc1c(Cl)cc(Cl)cc1C=Nc1ccc(Br)cc1,,"inconclusive: 22.4 µM [inhibitor, partial curve]"
COc1cc(/C=C2/C(=O)c3cccc([N+](=O)[O-])c3C2=O)c(Br)cc1O,,active: 12.6 µM
CCOc1ccc(CNC(=O)C2Cc3cc(S(=O)(=O)N4CCCCCC4)ccc3N2C(C)=O)cc1 (stereo unspecified),inactive: -15.7%,
COC(=O)c1ccccc1N/C=C1\CCc2c(c(C)nn2-c2ccccn2)C1=O,,active: 14.1 µM
COc1ccc(N(CC(=O)NCCSCc2ccco2)S(=O)(=O)c2ccccc2)cc1,,"inconclusive: 39.8 µM [inhibitor, single point]"
CN1CC=C2C(C#N)=C(N)C(C#N)(C#N)C(CCc3ccccc3)C2C1 (stereo unspecified),,"inconclusive: 12.6 µM [inhibitor, partial curve]"
CCn1c(CCCOc2ccc(Cl)cc2Cl)nnc1SCC(=O)Nc1cc(F)ccc1C,,"inconclusive: 28.2 µM [inhibitor, single point]"
